Experimental data: PubChem BioAssay (NCI)
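Test compounds were applied to cells in 96-well plates for 48 hours at 5 doses. GI50 = concentration required for 50% inhibition of growth. TGI: total growth inhibition.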

Tested on: NCI-H322M lung
Assay: NCI tumour cell line growth inhibition, 48 h

Structure (SMILES)	TGI [µM]	GI50 [µM]
O=C1CCCCc2cccc(O)c21	> 100	–
CCCCOC(=O)C(O)Cc1ccoc1 (stereo unspecified)	> 100	–
N/C(=N/n1c(=S)[nH]c2ccccc2c1=O)Nn1c(=S)[nH]c2ccccc2c1=O	> 100	–
O=C1/C(=C/c2ccc(O)cc2)COc2ccc(-c3ccccc3)cc21	21.7	6.65
O=S1C2=C(Cc3ccccc3)C(Cc3ccccc3)=C1CCc1cccc(c1)CC2	31.5	–
O=C1C(Cl)=C(Nc2cccc(O)c2)C(=O)N1c1cc(Cl)c(Cl)cc1Cl	38.8	17.1
Clc1ccc(C2NN=C3c4ccccc4OCC32)cc1 (stereo unspecified)	> 100	–
CC1(C)Oc2ccc3c(=O)cc(-c4ccc(F)cc4)oc3c2C1C(=O)O (stereo unspecified)	> 100	–
S=c1[nH]c(=S)c2cc(Sc3ccc4[nH]c(=S)[nH]c(=S)c4c3)ccc2[nH]1	> 100	–
COc1ccc(CC(C)N)cc1 (stereo unspecified)	> 100	–
CCCCN(Cc1ccc(F)cc1)c1ccc(CO)c(Cl)c1	27.2	13.6
CC(=O)OCC1OC(n2ccc(=O)[nH]c2=O)C(OC(C)=O)C1OC(C)=O (stereo unspecified)	> 100	> 100
CC(C)CC1=[N+]=C(NC#N)N=C(CCC(=O)Nc2ccccc2[N+](=O)[O-])C1	> 100	–
CC1(C)N=C(N)N=C(N)N1c1cccc(OCCOc2ccc([N+](=O)[O-])cc2)c1	> 100	–
Cc1cc2c(c(C=NCc3ccccc3)c1)OC1(C=C2)Oc2ccccc2C(=O)N1C (stereo unspecified)	44.4	–
Cc1c(NC(=S)Nc2ccc(Cl)cc2)c(=O)n(-c2ccccc2)n1C	> 100	–
O=c1oc2ccccc2n1CCN1CCCCC1	> 100	–
O=C(CCl)N1c2ccccc2Sc2c1ccc1ccccc21	34.7	18.3
CC(=O)Oc1ccc(O)c(O)c1C/C=C(\C)CC/C=C(\C)CC/C=C(\C)CCC=C(C)C	11.2	–
C=C1C(=O)O[C@H]2[C@H]1CC/C(COC(=O)N1CCC[C@H]1C(=O)Nc1ccc(OC)c(C(N)=O)c1O)=C\CC[C@@]1(C)O[C@@H]21	26.8	12.7
N#Cc1ccc(OCc2nc3cc(C(F)(F)F)ccc3nc2-c2ccccc2)cc1	> 100	–
COc1ccc2oc3cccc(NCCN(C)C)c3c(=O)c2c1	23.6	–
COc1cc[n+](C)cc1	> 100	–
COc1ccccc1N1CCN(Cn2c(=O)oc3cccnc32)CC1	> 100	–
Clc1nc(Cl)c2ncn(Cc3ccc(COc4cccc(OCc5ccc(Cn6cnc7c(Cl)nc(Cl)nc76)cc5)c4)cc3)c2n1	47.3	17.7

Structure (SMILES)	TGI [µM]	GI50 [µM]
O=C(N/N=C\c1ccc2ccccc2c1)Nc1ccc([N+](=O)[O-])cc1	> 100	–
Cn1c2ccccc2c(=NNc2ccc(C(=O)O)cc2)c2ccccc21	43.3	–
COc1cccc(C(=O)C2C(=O)N(C)CCc3ccccc32)c1OC (stereo unspecified)	> 100	–
Cc1nc2c(sc3nc4ccccc4n32)c(=O)[nH]1	> 100	–
CC1C(=O)C(C)C(c2ccccc2)N(N=O)C1c1ccccc1 (stereo unspecified)	> 816	–
CCC(CCCC[C@@H]1CC[C@H]2CC(=O)C[C@@H]12)OC (stereo partly specified)	> 100	–
Cc1nc2sc(C(=O)Nc3ccccc3)c(N)c2cc1C(=O)/C=C/c1ccccc1	5.99	2.32
C1=C\CCCCN2C[C@H]3CCCC/C=C\CCCCN4CC[C@@H]([C@H](CCCCCC/1)C4)[C@H](C3)C2	4.99	–
CC1(C)CC(=O)c2c(nc3ccc4ccccc4c3c2-c2ccc(NC(=O)CCC(=O)Nc3ccc(-c4c5c(nc6ccc7ccccc7c46)CC(C)(C)CC5=O)cc3)cc2)C1	> 100	–
CC1OC2CC(=O)OC2C2=C1C(=O)c1c(O)c3c(c(O)c1C2=O)C1CC(O)C3(O)C(C)O1 (stereo unspecified)	2.46	0.329
C#C[C@]1(O)CC[C@H]2[C@@H]3CCc4cc(OC(=O)c5cccc6cc7ccccc7nc56)ccc4[C@H]3CC[C@@]21C	> 100	–
O=C1C2=C(c3ccccc31)C(c1ccccc1)NC(=S)N2 (stereo unspecified)	> 100	–
COc1ccc(CC2NC(=O)/C=C/CC(C(C)C3OC3c3ccccc3)OC(=O)C(CC(C)C)OC(=O)C(C)CNC2=O)cc1Cl (stereo unspecified)	> 0.1	–
COc1cc[nH]c1/C=C1\C(=O)Nc2ccc(F)c(I)c21	> 25	> 25
C=C1CC[C@@H]2[C@](C)(COC(C)=O)[C@H](OC(C)=O)CC[C@@]2(C)[C@@H]1CC(Nc1ccc(S(=O)(=O)Nc2nccc(C)n2)cc1)C1=CCOC1=O (stereo partly specified)	23.9	11.3
COc1ccc(N=C(Nc2ccc(OC)cc2)C(=Nc2ccc(OC)cc2)Nc2ccc(OC)cc2)cc1	> 100	–
COc1ccc(NC(=O)/C(CC2=Nc3ccc([N+](=O)[O-])cc3NC2O)=N\NC(=O)C[N+](C)(C)C)c(OC)c1 (stereo unspecified)	> 100	–
COc1cc(COC(=O)N2CCC2C(=O)O)c([N+](=O)[O-])cc1OC (stereo unspecified)	> 100	–
COc1cc(Cn2c3c(c4c(C(=O)NCCN(C)C)c(O)ccc42)C(=O)c2ccccc2C3=O)cc(OC)c1	3.18	–
COC(=O)CCC12CCC(O1)c1ccccc12 (stereo unspecified)	> 100	–
N#CC(C(=O)C(=O)NCCCNC(=O)C(=O)C(C#N)c1ccccc1)c1ccccc1 (stereo unspecified)	> 100	–
COc1ccc2c(c1)c1c(n2CCN2CCCCC2)-c2ccccc2CC1	45.3	–
Cn1c(-c2ccc(/C=N\N3CCN(/N=C/c4ccc(-c5c[n+]6ccccc6n5C)cc4)CC3)cc2)c[n+]2ccccc12	> 100	–
C[C@@H]1CN(CC(=O)N2CC(C)(C)c3nc(CO)c(Cc4ccc(F)cc4)cc32)[C@@H](CN2CCOC[C@H]2C)CN1	> 100	35.6
